The values below come from the supplement of paper PMC3334620.

Whole data set: some 33,000 sequences, median “E-score (-0.5 to 0.5)” near -0.035, cut for the highest 2% near 0.35. Some of the results follow.

This experiment deals with T1, Pdr3 (UniProt P33200).
T1 sequence: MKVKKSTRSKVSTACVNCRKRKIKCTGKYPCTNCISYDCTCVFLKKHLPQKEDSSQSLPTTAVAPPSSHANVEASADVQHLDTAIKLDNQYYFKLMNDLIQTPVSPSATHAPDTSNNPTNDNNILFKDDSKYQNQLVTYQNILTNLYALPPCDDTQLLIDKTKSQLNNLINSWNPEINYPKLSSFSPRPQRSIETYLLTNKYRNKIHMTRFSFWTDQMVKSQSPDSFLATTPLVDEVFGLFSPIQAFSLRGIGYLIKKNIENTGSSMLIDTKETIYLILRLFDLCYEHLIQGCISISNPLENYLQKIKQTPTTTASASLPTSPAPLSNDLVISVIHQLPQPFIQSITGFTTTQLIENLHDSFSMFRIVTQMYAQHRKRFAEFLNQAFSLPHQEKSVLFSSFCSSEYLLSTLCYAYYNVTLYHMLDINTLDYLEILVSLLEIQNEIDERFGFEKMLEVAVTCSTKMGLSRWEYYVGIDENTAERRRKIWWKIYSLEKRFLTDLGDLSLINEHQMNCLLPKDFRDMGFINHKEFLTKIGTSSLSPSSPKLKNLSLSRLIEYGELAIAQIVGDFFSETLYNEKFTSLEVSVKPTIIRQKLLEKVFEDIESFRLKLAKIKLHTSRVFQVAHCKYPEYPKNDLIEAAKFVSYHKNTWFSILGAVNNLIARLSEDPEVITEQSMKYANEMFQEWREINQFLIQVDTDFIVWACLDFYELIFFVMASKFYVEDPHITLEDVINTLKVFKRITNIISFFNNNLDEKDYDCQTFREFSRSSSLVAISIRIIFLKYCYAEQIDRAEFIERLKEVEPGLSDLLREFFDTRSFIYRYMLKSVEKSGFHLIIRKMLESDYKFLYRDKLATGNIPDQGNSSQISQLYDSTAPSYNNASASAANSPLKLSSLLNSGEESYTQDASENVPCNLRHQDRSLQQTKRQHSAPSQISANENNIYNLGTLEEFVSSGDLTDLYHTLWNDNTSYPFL
Nature of the experiment: PBM E-score (8-mer binding enrichment) (E-score (-0.5 to 0.5)); higher = stronger / more preferred TF binding; most listed sequences are background and not binding sites. The following applies: protein concentration: 200 nM; construct: GST-full length. An outline of the steps: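 Universal all-10-mer Agilent arrays, double-stranded by primer extension on fresh or once-stripped slides, were probed with about 100-200 nM GST-tagged yeast transcription factors made by PURExpress. Fluorescent anti-GST detected bound protein, and masliner normalised the scans. E-scores from the Universal PBM Analysis Suite were given to each ungapped eight-base word pooled with its reverse complement.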
For the sequence CGGGACAG, the “PBM E-score” value amounted to 0.359. Turning to AGCGCCAA, the “PBM E-score” value was -0.18. Next, GTTACCAA: 0.0207; ACAGAGTC: -0.154; ACTCACCT: -0.177.

In the case of GTACGAAA, the “PBM E-score” value is -0.0942. Take ACTCTAGG: the “PBM E-score” value is -0.276. For the sequence GAACTATA, the “PBM E-score” value turned out to be 0.21. On to CCGAGAGA, for which the “PBM E-score” value came to 0.225. The result for CGGACAGC reads 0.322; that for ACGCGCGA, 0.0808; that for AACTCATA, 0.0347. Take AGTTATAT: the “PBM E-score” value is 0.0373. For GATCCTCC, the “PBM E-score” value worked out at 0.0438. The result for ACTCTAAT reads -0.181; that for GCAGCAAA, -0.103. For ACTCCAAC, the “PBM E-score” value is 0.0325. Turning to CGGGGGGC, the “PBM E-score” value is 0.0262. GGGCCCAA: the “PBM E-score” value was 0.0863. The result for CACGTGTC reads -0.112; that for GGGATTGA, -0.0585. Next, AAATCTAA: -0.155. On to AGTTTTGA, for which the “PBM E-score” value was -0.083. For CGGTATAC, the “PBM E-score” value amounted to 0.0238. With GGTATGCA, the “PBM E-score” value was -0.124.

Regarding GCCTCACC, the “PBM E-score” value is -0.0555. For GGCTCGAC, the “PBM E-score” value was -0.0845.

In the case of CAGTATGC, the “PBM E-score” value was -0.136. For TATCTCGA, the “PBM E-score” value is -0.134. In the case of AGTGTAAA, the “PBM E-score” value was -0.0303. In the case of CGCTTGGA, the “PBM E-score” value was -0.00701. Consider AGAGGCCT, for which the “PBM E-score” value is -0.225.

As for ATCGATGG, the “PBM E-score” value amounted to 0.0106. As to AAGGTTGC, the “PBM E-score” value was -0.0716. The result for GTGCCAGA reads -0.151; that for ACCTTCGG, 0.144. On to ATCAGCCC, for which the “PBM E-score” value is -0.0307. Consider CCATATTC, for which the “PBM E-score” value was 0.0896. With CAATGTCC, the “PBM E-score” value worked out at 0.0885. The result for CCCCACCC reads 0.31; that for CCCTACGC, -0.199; that for CTTCAGAA, -0.0866. Consider GCCTGAAC, for which the “PBM E-score” value was -0.29. As to GGGCCACC, the “PBM E-score” value was 0.14. Next, GTGTTTCA: -0.231; AAAGGAAA: 0.0486.

For the sequence ATGTAACA, the “PBM E-score” value is -0.0778. Next, CTCGGCGA: 0.307; GCTATAAC: -0.0734.

Turning to AGGAAGGC, the “PBM E-score” value was -0.185. The result for AGCTGATA reads -0.151; that for AAAAAGAC, -0.114; that for TCAGACGA, -0.0621. As to CTAAGTAC, the “PBM E-score” value was -0.115. The result for AAGAGGAC reads -0.207; that for CACATCAC, -0.102; that for GCATAAAC, -0.00073.

For the sequence CACTAAGA, the “PBM E-score” value was determined as 0.00961. The result for CGGGCCAA reads 0.0916; that for ATCCTGTC, 0.115. The result for ATAGCTCA reads -0.1.

Turning to AACATAGT, the “PBM E-score” value is -0.0164.

On to GACATTGC, for which the “PBM E-score” value is -0.158.

With ATATTTAA, the “PBM E-score” value was 0.0855. For the sequence ATGGTCCC, the “PBM E-score” value was -0.0703. On to CGGTACTC, for which the “PBM E-score” value is -0.0123. Take TCACCCGA: the “PBM E-score” value worked out at 0.244.

As to AAGAGCGG, the “PBM E-score” value turned out to be 0.174.

Regarding AGAGCAAT, the “PBM E-score” value was -0.101. For CACCTTTC, the “PBM E-score” value was -0.0106. Next, ATCGTAAA: -0.159. In the case of GGCGTGTA, the “PBM E-score” value is -0.139.

Consider CTGGGTGA, for which the “PBM E-score” value was -0.0478. The result for GCAACGCA reads 0.0114; that for ACGTAGCT, -0.31. As for GCAGCGCC, the “PBM E-score” value was found to be 0.0568. CGGTGTCC: the “PBM E-score” value was found to be 0.159.

On to ACTTTTTA, for which the “PBM E-score” value is -0.169.

For TGCCCTAA, the “PBM E-score” value was -0.0596.

Turning to AAGATAAC, the “PBM E-score” value stood at 0.0309. On to CGACGTAA, for which the “PBM E-score” value is -0.0605. In the case of GTCCCCGA, the “PBM E-score” value amounted to 0.166. Next, CGACTCAA: 0.0233. In the case of ACCGGTAT, the “PBM E-score” value is 0.145. For CACAGCAA, the “PBM E-score” value was determined as 0.167.

For ACTGCTAT, the “PBM E-score” value was -0.0643.
